# Assay results reported in the supplement of paper PMC4466236.
# Whole data set: some 33,000 sequences, median “E-score (dimensionless, -0.5 to 0.5)” near -0.058, cut for the highest 2% near 0.35. Some of the results follow.
# Test system: MvaT
# Assay: PBM 8-mer E-score (mean of HK and ME arrays) (E-score (dimensionless, -0.5 to 0.5)); higher = stronger relative binding preference; most listed sequences are background and not binding sites
# Procedure, shortened: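 Reported values are rank-based E-scores, taken as the mean of two universal arrays and parsed with a custom script. Each 8-mer score falls between -0.5 and 0.5. The arrays, ME and HK, were double-stranded 60-mers with a constant 25-mer primer region and a variable 35-mer region covering all 8-mers. They were probed, by an earlier protocol, with full-length P. aeruginosa MvaT carrying an N-terminal glutathione S-transferase fusion.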
row,Sequence,PBM 8-mer E-score
1,GTCACAAC,0.14
2,CCACACAC,-0.0304
3,CCCCTAGA,-0.22
4,AGAAATCA,-0.0327
5,ACCGAGGC,-0.132
6,GACGGTCA,-0.284
7,GGTCTCGA,-0.126
8,ATGGAAAT,0.19
9,GGCAGCGA,-0.234
10,GGGATACA,0.0517
11,AACGCGCG,0.0917
12,CTCCGGAC,-0.184
13,CGCTTCGA,0.00173
14,CAGACGAA,-0.0737
15,GGCCAGAA,-0.026
16,CGAGCAAA,0.00059
17,AAACCGCG,-0.0579
18,CCGAGATA,0.025
19,ACAACAAA,0.275
20,CCTCGGCA,-0.173
21,CTCTGGAA,-0.0543
22,ACTACTTA,0.377
23,TCCCGGGA,-0.118
24,GGGAAATA,0.243
25,CTATCTGC,-0.126

row,Sequence,PBM 8-mer E-score
1,CCCGCAGC,-0.265
2,GCCACGTA,-0.118
3,GATCGCAA,-0.0666
4,CAACGGCA,-0.199
5,GGCAGTTA,0.201
6,AAATGAAC,0.132
7,CATGCTTC,-0.108
8,CGCGGTCC,-0.214
9,CAGCTACG,-0.271
10,GACAGATA,0.15
11,GTCATTAA,0.116
12,CCTAGCAG,-0.214
13,CTACGCAA,-0.0595
14,AGTCTTAT,0.263
15,AGTTTACG,0.00749
16,GTTGGTTA,0.165
17,AGCCACGA,-0.0643
18,AGTGATGG,-0.129
19,CACCTGGG,-0.234
20,AGGATAAC,0.102
21,ATCGATAC,0.113
22,AGGCCATA,-0.16
23,ACTTAGTG,0.218
24,TAGAAAAA,0.0922
25,AACTATGA,0.291

row,Sequence,PBM 8-mer E-score
1,GAACGTCC,-0.275
2,CCATCGAC,-0.0705
3,ATGGTAAC,0.0827
4,GGTCGATA,-0.0301
5,CGACTCCA,-0.0608
6,GAGATGAC,-0.248
7,CCCCATCG,-0.138
8,CGGACATA,0.0773
9,ATACGGCC,-0.118
10,CCATCTGC,-0.15
11,AACCAGAC,-0.165
12,GCCAAATA,0.0496
13,GTGGTGCA,-0.128
14,GCCGATCC,-0.286
15,AGTGCAAC,-0.00465
16,CGCAATAC,0.0362
17,GAGCATCC,-0.325
18,AAACGCAA,0.199
19,GTGCTCGA,-0.153
20,GTGTGGTA,0.118
21,GACTTTGA,-0.0787
22,CCCAGTGA,-0.0637
23,ATAATATC,0.437
24,AAGTCGGG,-0.0449
25,CCCAGTTA,0.0279

row,Sequence,PBM 8-mer E-score
1,CACATGTA,0.166
2,ACCGCCCG,-0.146
3,CTGTATTA,0.36
4,AGTCTCAT,-0.00927
5,CGTTGGTA,0.0173
6,CTCGACAC,-0.149
7,CTATTGGA,0.0218
8,CTAGGGAA,-0.0329
9,GGATAGTA,0.128
10,CTGATTAC,0.0726
11,GTCACCGA,-0.18
12,CCGTAGGC,-0.302
13,GACAGCCC,-0.303
14,ACATGCAC,0.0853
15,TATTAGCA,0.276
16,CACGGTAA,0.0547
17,CATTACGG,0.00765
18,GGTCTAGA,-0.0778
19,GCGCATAC,0.0328
20,ACGTCTAA,-0.058
21,CCTTTTCG,-0.053
22,ATCTAAAG,0.171
23,AGTTGCCG,-0.0999
24,CCGTTCAG,-0.137
25,CTTAGGCC,-0.17

row,Sequence,PBM 8-mer E-score
1,CTCCCCAA,-0.229
2,AATTATTA,0.438
3,CTCCTCAA,-0.132
4,CGCTAGCC,-0.189
5,GTTCCCAA,-0.0583
6,CCGATATA,0.333
7,GCGCAACC,-0.0969
8,CGCAACAC,-0.112
9,CCGTCCAG,-0.194
10,GCTAAGCC,-0.234
11,GTGCCATA,-0.0269
12,GATGATGC,-0.077
13,TAACGCAA,0.195
14,CCGCGTAG,-0.238
15,GGATACTA,0.0363
16,ACACAGGC,-0.0277
17,GAACGTTA,0.207
18,GATCCCCC,-0.341
19,GGAACCAA,0.047
20,AAGAGTGG,-0.155
21,CTGCTGCA,-0.218
22,CGCAGAAC,-0.11
23,CATTTCGG,-0.024
24,GAAACACA,0.0961
25,GACCCATC,-0.249

row,Sequence,PBM 8-mer E-score
1,CGCGGAAA,0.0617
2,CAGCGACA,-0.0735
3,ACGGATAA,0.0259
4,CCACTTCC,-0.201
5,AGTTTGAC,0.12
6,ATCAAGAC,-0.0263
7,AACTTTGA,0.247
8,ACCCGTCG,-0.0362
9,AGGAAAGA,-0.097
10,CGCATCTC,-0.202
11,AGCACTCG,-0.164
12,AGTCCTGG,-0.086
13,CCATCCTC,-0.277
14,CAAAGATG,0.0517
15,TCCTCGCA,-0.126
16,ATGGAAAG,0.0412
17,GCAACCGC,-0.234
18,ACGCAAGA,-0.00773
19,GATTGGAA,0.0482
20,GATACTAA,0.213
21,AAGTCATA,0.209
22,AGAGGGGA,-0.144
23,GTCTCACA,-0.052
24,AACCGGCG,-0.083
25,CCGTTTCA,-0.0886

row,Sequence,PBM 8-mer E-score
1,ACAGGTTG,-0.21
2,CCACGCTA,-0.0651
3,CAGTGTCA,-0.168
4,TACATAGA,0.143
5,AGCCTCCG,-0.33
6,CTCTACGA,-0.163
7,AAATGCTA,0.142
8,AGAATATA,0.378
9,AACGGGCA,-0.142
10,AATGCATC,0.0818
11,GGCCGACC,-0.225
12,TATGCAAA,0.261
13,ACGATTCA,-0.0465
14,AGGGTAAT,0.102
15,CGCTCCCC,-0.404
16,TCCTCAAA,0.0105
17,ATATATGG,0.42
18,ACCATATC,0.099
19,AGGTTAAA,0.0501
20,CGAGGGCG,-0.305
21,ACACAGAC,-0.0322
22,AGTACATA,0.238
23,GCAGTTCC,-0.18
24,ATTCTCAA,0.128
25,CAGCTTGA,-0.207

row,Sequence,PBM 8-mer E-score
1,AGTCTAAG,0.098
2,CTAGTTGA,0.122
3,CCCTGTAA,-0.128
4,CCTCGTCA,-0.079
5,ACTCAGTG,-0.0225
6,AATTAGAG,0.155
7,AAAAAGCT,0.0209
8,CTCACTAC,-0.115
9,AGGTATAT,0.201
10,ACAAGCCT,-0.0491
11,TAGTGACA,0.0242
12,GGTAGCTA,-0.118
13,AGATAAGG,0.136
14,AGGGGATC,-0.201
15,ATTGTCAG,0.0673
16,AGCGACCC,-0.187
17,GTCTGCAA,-0.153
18,AGCCGCAG,-0.199
19,GAGAGACA,-0.166
20,CGTAATCC,-0.0891
21,ACTGTACC,-0.0921
22,ACGCTTAG,-0.188
23,AATCGTCT,0.0741
24,AGACTACA,-0.0489
25,CAGGTTCG,-0.252

row,Sequence,PBM 8-mer E-score
1,AGTGTATG,0.185
2,AGGCGTCA,-0.231
3,TTAAGTAA,0.328
4,CTAAGGAC,-0.191
5,ATTTATGC,0.199
6,GACAAAAC,0.146
7,CGGGGACC,-0.345
8,AAGCATTC,-0.126
9,ATTCCGAG,0.0144
10,AATACGTC,0.0932
11,CTTACGCA,-0.158
12,CGGAGGCC,-0.314
13,CACTGGCA,-0.237
14,TCATACAA,0.0994
15,CCAGCTCG,-0.233
16,ATATTCTG,0.292
17,CTATTGAA,0.184
18,ACTTGTCC,-0.0551
19,ATTAGCGA,0.131
20,ATTACATC,0.146
21,CTAAGGTA,0.0908
22,CAACAGCC,-0.26
23,CCGGTACA,-0.0915
24,ATGTCATC,0.0569
25,CACGAAGA,0.0533

row,Sequence,PBM 8-mer E-score
1,ACAGGTGC,-0.152
2,ACTGATGG,-0.198
3,AGTGCCAG,-0.101
4,ACGTAGTA,0.0425
5,ACGGGCGA,-0.0803
6,GACGAATA,0.133
7,CGTACAGA,-0.103
8,ATCTTCAA,0.0478
9,AATATGAG,0.139
10,AAGGAATG,0.0374
11,ACCTCAGC,-0.296
12,CTTGCCGA,-0.128
13,CCGCACCG,-0.226
14,ATTAGCTC,0.133
15,ATAACCTA,0.182
16,ACACGCTC,-0.0374
17,GGGGCGCA,-0.229
18,ACATTGAA,0.157
19,ATCTAGCC,-0.019
20,CAGACTCG,-0.268
21,GGGCCTGA,-0.257
22,CACTCGCC,-0.125
23,AGGGCATG,-0.207
24,AGCCTACA,-0.0198
25,ACCGTGAA,-0.075

row,Sequence,PBM 8-mer E-score
1,ACACAGGG,-0.0395
2,GGGCTTGA,-0.222
3,CCAATTGC,0.0733
4,GCCGAACA,-0.116
5,TTCAACAA,0.237
6,CCAACTAG,-0.0215
7,TGCTGTAA,0.119
8,CATGGCAA,0.015
9,AACCTGAA,0.0158
10,AAATTATT,0.401
11,AAGTAGAC,0.0778
12,CCCGAATA,0.0948
13,GATAGAGC,-0.133
14,CGTGGGAA,-0.124
15,GTATTAAC,0.39
16,AAAGTTCA,0.322
17,ACTTTACG,0.181
18,TGCCAAAA,-0.000748
19,CGGCACGC,-0.242
20,ACCTTGCT,-0.104
21,ATATGGAT,0.172
22,TAGCGGAA,-0.0464
23,ATCCACTG,-0.0232
24,ACAGCTAG,-0.154
25,CTGTCTTC,-0.0201

row,Sequence,PBM 8-mer E-score
1,CAAAGCAC,-0.0298
2,ACTTCGGG,-0.0146
3,AAAGTCCC,-0.0992
4,GGGGATCA,-0.288
5,CCATTTAC,0.0906
6,ATTTAGCC,0.0285
7,AAGGGATT,0.0714
8,ACTGAGGA,-0.12
9,ACCCAGCG,-0.163
10,AAAGAGGT,0.0575
11,ACCACTAT,0.0969
12,ATTTACGG,0.061
13,GATACAAC,0.0196
14,AGCAGATA,0.0571
15,CTTGCATA,0.204
16,GACTCAAC,-0.174
17,ATTTTGAA,0.222
18,CACCGTCG,-0.28
19,TGCATGAA,-0.078
20,CCACTAAC,0.0983
21,AGAAGCAG,-0.127
22,CATAGTGG,0.00667
23,TATCGCGA,0.0272
24,ACCAACTG,0.096
25,AGATCGTC,-0.113

row,Sequence,PBM 8-mer E-score
1,CTCTGGTA,-0.0293
2,AGCCGTGG,-0.207
3,ACAAGGTG,-0.176
4,GACGAGGA,-0.172
5,GACATTAC,0.143
6,AGGCCGAA,-0.0967
7,GGCGATAA,0.137
8,CACATCCC,-0.0535
9,ATGATGAA,0.0852
10,AGCCTGGA,-0.185
11,AATCCCTA,0.0407
12,AGGGCTAG,-0.198
13,ACTATCCT,0.069
14,GAACGAAC,-0.0148
15,AAAGTCCA,0.0511
16,ATATAGAA,0.366
17,GTAGACTA,0.175
18,CTCAACTA,0.0798
19,AGGGTCAG,-0.15
20,AGACAGAC,0.0122
21,AGTCGAGG,-0.166
22,TAATAGAA,0.254
23,ACTTACCA,0.121
24,CCTTGGGA,-0.209
25,CGGGCTAA,0.0382

row,Sequence,PBM 8-mer E-score
1,ACCCCGAC,-0.219
2,CTAGGAAA,-0.061
3,TGCATTAA,0.332
4,TCTTACCA,0.0879
5,CAAGTAGA,0.141
6,AGGGACGA,-0.224
7,CCGGCAAC,-0.0911
8,GCGGCGGA,-0.273
9,ATGACTGG,-0.158
10,CCGTCCCG,-0.215
11,GAGCTATC,-0.132
12,CCTTATGC,-0.0519
13,GAGATGGC,-0.156
14,GTCCAGAA,-0.136
15,AAAATGGC,0.0819
16,CGTCACCC,-0.201
17,CATAGCGA,0.0278
18,GTCCCTGA,-0.157
19,AGGTGGGG,-0.279
